A lower IC50 marks a more sensitive line; a fit beyond the top or the lowest dose is shown as a bound at that dose. The AUC spans the tested range (256-fold, ending at the top dose) of the same fit: 1 means no effect, lower means more sensitive. For part of these data: A top dose marked as inferred was calculated from the reported fits. For part of these data: Drugs with an entry number were screened twice under separate entries, and the two screens often disagree.
Columns and labels:
Test in all cases: Viability of human cancer cell lines after 72 h of drug (GDSC screen)
Tretinoin = compound: CC1=C(/C=C/C(C)=C/C=C/C(C)=C/C(=O)O)C(C)(C)CCC1 [Tretinoin]; details: top dose 10 µM; top dose inferred
Protocol: (§1)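 Human cancer cell lines in 384-well plates, medium with 10% serum, drug for 72 h over a 256-fold dose range (nine 2-fold or five 4-fold steps up to the top dose). Adherent lines were fixed and stained with the nucleic acid dye Syto60, suspension lines read with resazurin; signal relative to control wells, capped at 0 and 100%. One two-parameter sigmoid per drug and line, fitted in a mixed model over all curves with the slope shared within a line.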

SB-505124 = compound: Cc1cccc(-c2[nH]c(C(C)(C)C)nc2-c2ccc3c(c2)OCO3)n1 [SB-505124]; details: top dose 10 µM; top dose inferred
Protocol: as §1

PI-103 = compound: Oc1cccc(-c2nc(N3CCOCC3)c3oc4ncccc4c3n2)c1 [PI-103]; details: top dose 10.24 µM
Protocol: as §1

GSK690693 = compound: CCn1c(-c2nonc2N)nc2c(C#CC(C)(C)O)ncc(OC[C@H]3CCCNC3)c21 [GSK690693]; details: top dose 10.24 µM; top dose inferred
Protocol: as §1

UNC0638 = compound: COc1cc2c(NC3CCN(C(C)C)CC3)nc(C3CCCCC3)nc2cc1OCCCN1CCCC1 [UNC0638]
Protocol: as §1

BX-795 = compound: O=C(NCCCNc1nc(Nc2cccc(NC(=O)N3CCCC3)c2)ncc1I)c1cccs1 [BX-795]; details: top dose 5 µM; top dose inferred
Protocol: as §1

[1] = top dose 20 µM, screen: GDSC drug entry 1236, top dose inferred
[2] = top dose 40 µM, screen: GDSC drug entry 245

Cell Line | AUC (Tretinoin) | IC50 (Tretinoin) [µM] | AUC (SB-505124) | IC50 (SB-505124) [µM] | AUC (PI-103) | IC50 (PI-103) [µM] | AUC (GSK690693) | IC50 (GSK690693) [µM] | AUC (UNC0638; [1]) | IC50 (UNC0638; [1]) [µM] | AUC (UNC0638; [2]) | IC50 (UNC0638; [2]) [µM] | AUC (BX-795) | IC50 (BX-795) [µM]
22RV1 (prostate, adherent) | 0.98 | > 10 | 0.949 | > 10 | 0.416 | 0.357 | 0.854 | > 10.2 | 0.732 | 6.84 | 0.61 | 5.42 | 0.92 | > 5
42-MG-BA (glioma, adherent) | 0.957 | > 10 | 0.967 | > 10 | 0.711 | 2.64 | 0.923 | > 10.2 | 0.705 | 4.94 | 0.669 | 7.68 | 0.783 | 2.26
201T (lung adenocarcinoma, adherent) | 0.971 | > 10 |  |  | 0.827 | 8.5 | 0.957 | > 10.2 |  |  | 0.927 | > 40 | 0.898 | > 5
451Lu (melanoma, adherent) | 0.964 | > 10 | 0.988 | > 10 | 0.774 | 3.84 | 0.989 | > 10.2 | 0.972 | > 20 | 0.839 | 25.5 | 0.935 | > 5
639-V (bladder, adherent) | 0.992 | > 10 | 0.843 | 5.59 | 0.821 | 4.82 | 0.992 | > 10.2 | 0.847 | 11.5 | 0.967 | > 40 | 0.925 | > 5
647-V (bladder, adherent) | 0.957 | > 10 | 0.986 | > 10 | 0.868 | 9.36 | 0.984 | > 10.2 | 0.815 | 11.1 | 0.91 | > 40 | 0.959 | > 5
5637 (bladder, adherent) | 0.987 | > 10 | 0.974 | > 10 | 0.797 | 4.31 | 0.92 | > 10.2 | 0.964 | > 20 | 0.714 | 9.4 | 0.84 | 2.97
8305C (thyroid, adherent) | 0.978 | > 10 | 0.975 | > 10 | 0.836 | 10 | 0.982 | > 10.2 | 0.808 | 14.5 | 0.982 | > 40 | 0.818 | 3.99
8505C (thyroid, adherent) | 0.89 | > 10 | 0.983 | > 10 | 0.584 | 1.1 | 0.961 | > 10.2 | 0.719 | 5.43 | 0.697 | 9.28 | 0.872 | > 5
23132-87 (stomach, adherent) | 0.985 | > 10 | 0.985 | > 10 | 0.576 | 1.04 | 0.864 | 9.51 | 0.885 | > 20 | 0.743 | 12.8 | 0.943 | > 5
A431 (skin, adherent) | 0.939 | > 10 | 0.986 | > 10 | 0.761 | 3.49 | 0.932 | > 10.2 | 0.954 | > 20 | 0.818 | 21.4 | 0.814 | 2.58
A2780 (ovary, semi-adherent) | 0.881 | > 10 | 0.934 | > 10 | 0.182 | 0.0679 | 0.826 | 6.5 | 0.867 | 19.1 | 0.717 | 10.6 | 0.906 | > 5
AGS (stomach, adherent) | 0.989 | > 10 |  |  | 0.813 | 4.81 | 0.973 | > 10.2 | 0.851 | 13 | 0.91 | > 40 | 0.733 | 1.32
ASH-3 (thyroid, adherent) | 0.988 | > 10 | 0.931 | > 10 | 0.861 | 8.63 | 0.982 | > 10.2 | 0.977 | > 20 | 0.988 | > 40 | 0.897 | > 5
AU565 (breast, adherent) | 0.873 | > 10 | 0.982 | > 10 | 0.921 | > 10.2 | 0.944 | > 10.2 | 0.84 | 16.2 | 0.819 | 26.2 | 0.956 | > 5
AsPC-1 (pancreas, adherent) | 0.971 | > 10 | 0.843 | > 10 | 0.948 | > 10.2 | 0.947 | > 10.2 | 0.787 | 16.8 | 0.814 | > 40 | 0.929 | > 5
BFTC-905 (bladder, adherent) | 0.989 | > 10 | 0.99 | > 10 | 0.676 | 1.83 | 0.989 | > 10.2 | 0.906 | > 20 | 0.936 | > 40 | 0.744 | 1.38
BHT-101 (thyroid, adherent) | 0.985 | > 10 | 0.957 | > 10 | 0.872 | > 10.2 | 0.984 | > 10.2 | 0.854 | 16.5 | 0.878 | > 40 | 0.754 | 1.73
BICR10 (head and neck, adherent) | 0.984 | > 10 | 0.955 | > 10 | 0.985 | > 10.2 | 0.984 | > 10.2 | 0.971 | > 20 | 0.948 | > 40 | 0.874 | > 5
BICR22 (head and neck, adherent) | 0.907 | > 10 | 0.981 | > 10 | 0.55 | 0.894 | 0.957 | > 10.2 | 0.921 | > 20 | 0.982 | > 40 | 0.698 | 1.23
BICR78 (head and neck, adherent) | 0.887 | > 10 | 0.953 | > 10 | 0.852 | 9.91 | 0.955 | > 10.2 | 0.942 | > 20 | 0.956 | > 40 | 0.835 | 4.05

Cell Line | AUC (Tretinoin) | IC50 (Tretinoin) [µM] | AUC (SB-505124) | IC50 (SB-505124) [µM] | AUC (PI-103) | IC50 (PI-103) [µM] | AUC (GSK690693) | IC50 (GSK690693) [µM] | AUC (UNC0638; [1]) | IC50 (UNC0638; [1]) [µM] | AUC (UNC0638; [2]) | IC50 (UNC0638; [2]) [µM] | AUC (BX-795) | IC50 (BX-795) [µM]
BL-41 (Burkitt lymphoma, suspension) | 0.994 | > 10 | 0.977 | > 10 | 0.059 | < 0.04 | 0.314 | 0.222 | 0.816 | 7.95 | 0.601 | 4.42 | 0.735 | 1.2
BT-20 (breast, adherent) | 0.967 | > 10 | 0.982 | > 10 | 0.566 | 1.01 | 0.818 | 7.66 | 0.921 | > 20 | 0.97 | > 40 | 0.972 | > 5
BT-483 (breast, adherent) | 0.925 | > 10 | 0.967 | > 10 | 0.555 | 1.03 | 0.971 | > 10.2 | 0.875 | > 20 | 0.788 | > 40 | 0.949 | > 5
BxPC-3 (pancreas, adherent) | 0.946 | > 10 | 0.982 | > 10 | 0.984 | > 10.2 | 0.984 | > 10.2 | 0.815 | 12.8 | 0.706 | 10.3 | 0.905 | > 5
C3A (liver, adherent) | 0.988 | > 10 | 0.965 | > 10 | 0.988 | > 10.2 | 0.988 | > 10.2 | 0.97 | > 20 | 0.988 | > 40 | 0.988 | > 5
C32 (melanoma, adherent) | 0.957 | > 10 | 0.984 | > 10 | 0.98 | > 10.2 | 0.987 | > 10.2 | 0.985 | > 20 | 0.975 | > 40 | 0.928 | > 5
C-4-I (cervix, adherent) | 0.986 | > 10 | 0.985 | > 10 | 0.981 | > 10.2 | 0.986 | > 10.2 | 0.985 | > 20 | 0.969 | > 40 | 0.95 | > 5
CADO-ES1 (Ewing sarcoma, suspension) | 0.974 | > 10 | 0.96 | > 10 | 0.532 | 0.786 | 0.971 | > 10.2 | 0.98 | > 20 | 0.734 | 11.8 | 0.955 | > 5
CAL-12T (non-small cell lung carcinoma, adherent) | 0.976 | > 10 | 0.982 | > 10 | 0.262 | 0.122 | 0.931 | > 10.2 | 0.895 | > 20 | 0.781 | 18.7 | 0.85 | 4.51
CAL-29 (bladder, adherent) | 0.93 | > 10 | 0.913 | > 10 | 0.983 | > 10.2 | 0.901 | > 10.2 | 0.925 | > 20 | 0.885 | > 40 | 0.781 | 2.24
HGC-27 (stomach, adherent) | 0.968 | > 10 | 0.941 | > 10 | 0.198 | 0.0986 |  |  | 0.94 | > 20 | 0.898 | 36.8 | 0.779 | 1.72
KYSE-140 (oesophagus, adherent) | 0.926 | > 10 |  |  | 0.663 | 1.94 | 0.646 | 1.72 | 0.809 | 12.1 | 0.984 | > 40 | 0.866 | > 5
MIA-PaCa-2 (pancreas, adherent) | 0.972 | > 10 |  |  | 0.982 | > 10.2 | 0.984 | > 10.2 |  |  | 0.983 | > 40 | 0.793 | 2.54
MKN28 (stomach, adherent) | 0.98 | > 10 |  |  | 0.894 | > 10.2 | 0.975 | > 10.2 | 0.813 | 11.1 | 0.817 | 23.1 | 0.913 | > 5
NCI-H647 (non-small cell lung carcinoma, adherent) | 0.97 | > 10 |  |  | 0.359 | 0.256 | 0.956 | > 10.2 |  |  | 0.738 | 12.5 | 0.801 | 2.58
NCI-H2052 (mesothelioma, adherent) | 0.983 | > 10 |  |  | 0.913 | > 10.2 | 0.963 | > 10.2 |  |  | 0.846 | > 40 | 0.944 | > 5
NCI-H3122 (lung adenocarcinoma, adherent) | 0.983 | > 10 |  |  | 0.507 | 0.669 | 0.958 | > 10.2 |  |  | 0.76 | 14.5 | 0.909 | > 5
OCUM-1 (stomach, adherent) | 0.987 | > 10 |  |  | 0.987 | > 10.2 | 0.987 | > 10.2 |  |  | 0.958 | > 40 | 0.874 | > 5
PA-1 (ovary, adherent) | 0.953 | > 10 |  |  | 0.192 | 0.104 | 0.799 | 3.72 |  |  | 0.691 | 7.48 | 0.748 | 1.31
SAT (head and neck, adherent) | 0.897 | > 10 |  |  | 0.817 | > 10.2 | 0.975 | > 10.2 |  |  | 0.779 | 26.9 | 0.807 | 4.55
TT (thyroid, adherent) | 0.965 | > 10 | 0.959 | > 10 |  |  | 0.983 | > 10.2 | 0.893 | > 20 | 0.978 | > 40 | 0.921 | > 5

Source: the supplement of paper PMC4967469
